From US10864269B2, “Therapeutic combinations comprising anti-CD73 antibodies and uses thereof” (MedImmune Limited, priority 2014, dated 2020)

Assays:
huCD73 = biological target: T1, huCD73 (Homo sapiens, UniProt P21589); test: ELISA binding of Fab variants to human CD73; conditions: combinatorial Fab library clones, capture ELISA and direct ELISA
T1 sequence (P21589 27-549): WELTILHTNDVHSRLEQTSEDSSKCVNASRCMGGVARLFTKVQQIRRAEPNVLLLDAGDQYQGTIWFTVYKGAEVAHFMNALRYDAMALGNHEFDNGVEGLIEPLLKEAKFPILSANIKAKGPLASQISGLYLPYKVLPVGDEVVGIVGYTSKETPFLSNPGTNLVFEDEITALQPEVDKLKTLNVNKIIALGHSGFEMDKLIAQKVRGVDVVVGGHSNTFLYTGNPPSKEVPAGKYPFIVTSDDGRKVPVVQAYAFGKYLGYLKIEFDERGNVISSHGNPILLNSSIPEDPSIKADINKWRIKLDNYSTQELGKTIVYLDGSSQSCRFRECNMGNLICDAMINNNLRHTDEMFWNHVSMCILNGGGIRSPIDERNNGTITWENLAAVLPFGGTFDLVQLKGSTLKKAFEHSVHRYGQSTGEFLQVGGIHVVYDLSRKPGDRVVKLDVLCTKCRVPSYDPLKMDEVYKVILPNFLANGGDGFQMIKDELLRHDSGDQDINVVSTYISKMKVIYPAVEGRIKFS
Excerpt: (§1) CD730010GL9 IgG1-TM was enhanced by screening Fab libraries comprising variant CDR sequences with single amino acid mutations. Each of the 61 positions in the six CDRs was individually randomized to 19 amino acids (all natural amino acids except Cysteine), generating a library with a theoretical diversity of 1159 unique clones (19 amino acids per position times 61 positions). Bacterial Fab fragments were produced from 4224 clones of the library and screened for binding to human and murine CD73 protein by capture ELISA (Assay 2). […] The Fab concentration in the bacterial supernatants was normalized and the binding of the normalized supernatants to human and murine CD73 protein was evaluated by direct ELISA (Assay 1). […]
(§2) 384-well ELISA plates were coated with about 1.5 ng/well recombinant CD73 protein, blocked with 1% BSA/0.1% Tween20/PBS and incubating with antibody samples for 90 minutes at room temperature. […] HRP activity was detected with tetra methyl benzidine (TMB) substrate and the reaction was stopped with 1 M HCl. Plates were read at 450 nm.
as §2, with “3” for “1.5”, “sheep-anti-human Fd antibody (for screening antibodies in Fab format),” for “recombinant CD73 protein,”, “with” for “with antibody”, “Plates were read at 450 nm.” left out

muCD73 = biological target: T2, muCD73 (Mus musculus, UniProt Q61503); test: ELISA binding of Fab variants to murine CD73; conditions: combinatorial Fab library clones, capture ELISA and direct ELISA
T2 sequence (Q61503 29-551): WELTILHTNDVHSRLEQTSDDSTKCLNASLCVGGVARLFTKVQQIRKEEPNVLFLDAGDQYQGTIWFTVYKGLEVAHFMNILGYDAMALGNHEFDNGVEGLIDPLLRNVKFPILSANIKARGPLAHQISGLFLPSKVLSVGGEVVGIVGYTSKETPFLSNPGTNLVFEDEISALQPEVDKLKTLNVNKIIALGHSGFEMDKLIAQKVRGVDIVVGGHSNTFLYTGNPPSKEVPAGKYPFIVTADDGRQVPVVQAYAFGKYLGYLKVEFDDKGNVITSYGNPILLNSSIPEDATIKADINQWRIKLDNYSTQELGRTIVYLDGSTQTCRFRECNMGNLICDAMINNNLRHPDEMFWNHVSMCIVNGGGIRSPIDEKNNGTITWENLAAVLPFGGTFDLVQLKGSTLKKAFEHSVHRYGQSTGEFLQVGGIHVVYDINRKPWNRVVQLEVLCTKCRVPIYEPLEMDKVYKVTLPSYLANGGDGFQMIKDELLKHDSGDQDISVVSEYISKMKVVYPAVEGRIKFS
Excerpt: as §1, §2
as §2, with “3” for “1.5”, “sheep-anti-human Fd antibody (for screening antibodies in Fab format),” for “recombinant CD73 protein,”, “with” for “with antibody”, “Plates were read at 450 nm.” left out

binding to human CD73 (huCD73): strong binding
binding to murine CD73 (muCD73): strong binding
B1: C1: combinatorial library clone of CD730010 GL9; VL SEQ ID NO: 60, VH SEQ ID NO: 74 (antibody, V domains shown)
VH: EVQLLESGGGLVQPGGSLRLSCAASGFTFSSYAYSWVRQAPGKGLEWVSAISGSGGSTYYADSVKGRFTISRDNSKNTLYLQMNSLRAEDTAVYYCARLGYSTIDKWGRGTLVTVSS
VL: QSVLTQPPSASGTPGQRVTISCSGSLSNIGRNEVNWYQQLPGTAPKLLIYLNNQRPSGVPDRFSGSKSGTSASLAISGLQSEDEADYYCATWDDSLKGWLFGGGTKLTVL
